Measurements reported in PubChem BioAssay AID1463 (National Center for Advancing Translational Sciences (NCATS), 2008).
Screen size: about 280,000 compounds; about 2,600 (0.93%) were called active. Roughly 8% stayed inconclusive and do not appear here. Calls follow the shape of the dose curve; as a rule, active = well fitted curve in the direction sought with a large enough effect; inconclusive = small, poorly fitted or top-dose-only effect; inactive = flat fitted curve, though single readings scatter. The list shows a part of the results, in another mix than the full data. More than one record can exist for a structure, and the calls need not agree.
% is scaled to controls: 0 for no effect and ±100 for the full control effect; potency is read from the fitted curve at half-maximal effect; tags tell the direction and shape of the fitted curve or compound fluorescence and quenching.

Experiment: Counterscreen qHTS for Inhibitors of Tau Fibril Formation, Fluorescence Polarization; also: nearly all actives have a fitted effect of over 55% in size
Conditions: tau K18 P301L (four-repeat tau fragment) Alexa594 fluorescence, heparin fibrillization; series mostly up to 57.7 µM; activity change, negative = decrease: at the top concentration
Text: NIH Molecular Libraries Probe Production Network [MLPCN]
NIH Chemical Genomics Center [NCGC]
Assay Provider: Carlo Ballatore, University of Pennsylvania
The microtubule-associated protein tau is an abundant protein in the axons of neurons that stabilizes microtubules. With its ability to modulate microtubule dynamics, tau contributes directly or indirectly, to key structural and regulatory cellular functions. Particularly important is the influence tau exerts on axonal transport, which allows signaling molecules, trophic factors and other essential cellular constituents to travel along the axons. Under pathological conditions, tau becomes sequestered into insoluble aggregates called neurofibrillary tangles. This phenomenon is believed to have pathological consequences by promoting axonal transport deficits that ultimately lead to synaptic dysfunction and neuronal loss. To identify inhibitors of tau aggregation, a heparin-induced tau fibril formation assay was used that employed a recombinantly expressed fragment of tau, K18 (Q242-E372), bearing a P301L mutation (Gustke et al. 1994; Hong et al. 1998). […] Total fluorescence (555 nm excitation and 632 nm emission) was measured to identify fluorescent or absorbent compounds at this wavelength. Such compounds may be artifacts that interfere with the Alexa 594 Tau fluorescence polarization assay.
Gustke, N., B. Trinczek, et al. (1994). "Domains of tau protein and interactions with microtubules." Biochemistry 33(32): 9511-22.
Hong, M., V. Zhukareva, et al. (1998).
Li, W. and V. M. Lee (2006). "Characterization of two VQIXXK motifs for tau fibrillization in vitro." Biochemistry 45(51): 15692-701.
von Bergen, M., S. Barghorn, et al. (2001). "Mutations of tau protein in frontotemporal dementia promote aggregation of paired helical filaments by enhancing local beta-structure." J Biol Chem 276(51): 48165-74.
NCGC Assay Protocol Summary:
For screening, 2 uL/well human K18 P301L (15 uM unlabeled and 0.24 uM Alexa 594-labeled tau final concentrations) in reagent buffer (100 mM sodium acetate pH 7) was dispensed into black solid 1536-well plates (Grenier) using a solenoid-based dispenser. Following transfer of 23 nL compound or DMSO vehicle by a pin tool, 2 uL/well heparin (20 uM final concentration) in reagent buffer was added and the plate centrifuged 15 s at 1000 RPM. Plates were incubated 6 hr at 37 C and then 1 uL/well ThT (30 uM final concentration) was added. After a 1 hr ambient incubation, the plates were read by an Envision (Perkin Elmer) to monitor Alexa 594 FP (555 nm excitation and 632 nm emission).
Keywords: NIH Roadmap, MLPCN, MLI, MLSMR, NCGC, qHTS, tau, tauopathies, Alzheimer's disease, fibril, neurodegeneration, aggregation
For `COCOc1cc(OC)ccc1C(=O)/C=C\c1ccc2c(c1)OCO2`, the activity change, negative = decrease was inactive: -7.33% [at 11.6 µM]. With `Cc1ccn2c(Nc3ccc4c(c3)OCCO4)c(-c3ccc(Cl)s3)nc2c1` the Potency was active: 7.08 µM [quencher]. With `COCCOC(=O)C1=C(C)NC(C)=C(C(=O)OC(C)C)[C@@H]1c1cccc([N+](=O)[O-])c1` the “activity change, negative = decrease” value was inactive: -26.9%. With `CCOC(=O)C1=C(C)NC(C)=C(C(=O)OC)C1c1cccc([N+](=O)[O-])c1` (stereo unspecified) the Potency was “inactive”. With `COc1ccccc1OCCNCC(O)COc1cccc2[nH]c3ccccc3c12` (stereo unspecified) the “activity change, negative = decrease” value was inactive: -24.7%. For `COC(=O)[C@@]1(Cc2ccc(OC)cc2)[C@H]2c3cc(C(=O)N4CCCC4)n(CCc4c[nH]c5ccc(O)cc45)c3C[C@H]2CN1C(=O)c1ccccc1`, the “activity change, negative = decrease” value was inactive: -26.3%. With `C[C@@H](NC(=O)c1nc[nH]c1C(=O)N[C@@H](Cc1ccccc1)C(=O)OC(C)(C)C)c1ccccc1` the “activity change, negative = decrease” value was inactive: -25.7%. In the case of `Oc1ccc(Nc2nc3ccccc3nc2Nc2ccc(O)cc2)cc1`, the Potency was active: 7.08 µM [quencher]. In the case of `Cn1c(-c2ccccc2)c(/C=N/NC(=O)c2ccc(O)cc2)c2ccccc21`, the Potency was active: 20 µM [quencher]. In the case of `CC[C@]1(O)C[C@@H]2CN(CCc3c([nH]c4ccccc34)[C@@](C(=O)OC)(c3cc4c(cc3OC)N(C)[C@H]3[C@@](O)(C(=O)OC)[C@H](OC(C)=O)[C@]5(CC)C=CCN6CC[C@]43[C@@H]65)C2)C1`, the “activity change, negative = decrease” value was inactive: -25.8%. For `Cc1c(C)c2c(c(C)c1O)CC[C@@](C)(CCC[C@H](C)CCC[C@H](C)CCCC(C)C)O2`, the Potency was “inactive”. With `O=C(CSc1ncc(-c2ccccc2)[nH]1)Nc1ccc(Cl)cc1` the Potency was active: 14.1 µM [quencher]. For `Fc1ccc(Nc2c(-c3ccco3)nc3ccccn23)cc1`, the “activity change, negative = decrease” value was inactive: -2.18%. In the case of `C[C@@H]1CCC[C@@]2(O[C@H](CCO)C[C@@H](O)[C@@H]2O)O1`, the “activity change, negative = decrease” value was inactive: -2.25%. In the case of `O=C(CN1CCN(c2ccc(Cl)cc2)CC1)Nc1ccc(F)c(F)c1`, the “activity change, negative = decrease” value was inactive: -28.7%. With `CC(C)c1ccc(NC(=O)C2CCCN2S(=O)(=O)c2ccc3nc(-c4ccccc4)[nH]c3c2)cc1` (stereo unspecified) the Potency was active: 11.2 µM [quencher]. With `CCO[C@H]1OC(C(=O)Nc2ccccc2)=C[C@@H](c2coc3ccccc3c2=O)[C@@H]1CCCO` the “activity change, negative = decrease” value was inactive: -4.29%. With `CC1(OC(=O)c2ccc(Cl)nc2)C(=O)C=C2C=C(c3ccc(C#N)cc3)OC=C2C1=O` (stereo unspecified) the “activity change, negative = decrease” value was inactive: -23.2%. With `O=C(Nc1ccc(Cl)cc1)N1CCC(c2ccccc2)C1` (stereo unspecified) the “activity change, negative = decrease” value was inactive: -27.3%. With `COc1ccc(O[C@H]2C=C[C@@H](c3ccccc3)O[C@@H]2COC(=O)CCC(C)=NO[C@@H]2O[C@H](COC(C)=O)[C@@H](OC(C)=O)[C@H](OC(C)=O)[C@H]2OC(C)=O)cc1` the “activity change, negative = decrease” value was inactive: -15.2%. For `On1onc2c3cc(-c4ccccc4)nc3ccc21`, the Potency was active: 12.6 µM [quencher]. For `O=C(NCCc1c[nH]c2ccccc12)C1CCC(Cn2c(=S)[nH]c3ccccc3c2=O)CC1` (stereo unspecified), the Potency was active: 3.98 µM [quencher]. With `COc1ccc(/C=C/C(=O)c2cc3c(cc2N)OCO3)cc1` the Potency was active: 15.8 µM [quencher]. With `O=C(/C=C/c1ccc(O)cc1)c1c(O)cc(O)cc1O` the “activity change, negative = decrease” value was inactive: 1.81%. For `COc1cccc(Oc2cn[nH]c2-c2ccc(OC)cc2O)c1`, the Potency was active: 14.1 µM [quencher]. For `O=C(N/N=C/c1c[nH]c2ccccc12)c1sc2ccccc2c1Cl`, the Potency was active: 8.91 µM [quencher]. In the case of `CCOC(=O)c1nnn(CC(=O)NC(=O)Nc2cccc(CC)c2)c1C(=O)OCC`, the “activity change, negative = decrease” value was inactive: -28.9%. In the case of `O=C1Nc2ccc(I)cc2/C1=C/c1cc(Br)c(O)c(Br)c1`, the “activity change, negative = decrease” value was inactive: -28.3%. For `CCC1=C(OC(=O)N(CC)CC)N2C(=O)OC(=NCCc3c[nH]c4ccccc34)[C@]2(C)[C@H]2C1=CC[C@H]1C(=O)N(CC(=O)OC)C(=O)[C@H]12`, the “activity change, negative = decrease” value was inactive: -14.8%. With `Cc1cc(C)cc(NC(=O)C(=O)NCCc2c[nH]c3ccccc23)c1` the Potency was active: 15.8 µM [quencher]. In the case of `COCCOC(=O)C1=C(C)NC(C)=C(C(=O)OC(C)C)C1c1cccc([N+](=O)[O-])c1` (stereo unspecified), the “activity change, negative = decrease” value was inactive: -6.5%.
